In the supplement of paper PMC11417369:
± gives the standard deviation of the averaged measurements. This is one part of the list.

Tested on: PfAP2-LT AP2 domain (GST-tagged)
Assay: gcPBM binding intensity (ln(normalized median fluorescence intensity)); higher = stronger DNA binding
In short: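 The binding buffer was 1× PBS containing 1% milk, 0.2 mg/ml BSA, 0.5% salmon testes DNA and 0.03% Triton X-100. In it, GST-tagged P. falciparum DNA-binding domains expressed in E. coli were applied for 1 h to an Agilent 4 × 180k array of primer-extended double-stranded 36-bp intergenic genomic probes plus negative controls. Binding intensity, read with Alexa488 anti-GST antibody and a 488 nm scan, is the highest Masliner-normalised natural-log median intensity across replicate spots of either probe orientation.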

Q: For “TGAATAAATAGACACACACACATATATAAATATGTA [CACACA_site6159]”, which “gcPBM binding intensity (ln)” value is on record?
A: 9.66 ± 0.25

Q: For “AAATATTTTAACGAGAGTACATAATAACAATTTATG [XGTACX_site3865]”, which “gcPBM binding intensity (ln)” value is on record?
A: 8.61 ± 0.43

Q: With “GAAAGAATAAAATTTACACACATATATAAATACATA [CACACA_site5273]” as the sequence, how does the “gcPBM binding intensity (ln)” value read?
A: 9.07 ± 0.44

Q: With “TTTTTTTTTTTTTATTGTACTAAATTATAGAGGGGA [XGTACX_site2609]” as the sequence, how does the “gcPBM binding intensity (ln)” value read?
A: 8.39 ± 0.38

Q: “AAAAAAAAAAAATACACACACACATATATATATATA [CACACA_site731]” was tested. Which “gcPBM binding intensity (ln)” value did it give?
A: 9.84 ± 0.29

Q: How did the “gcPBM binding intensity (ln)” value turn out when “AAAGAAAGGAATACGACACACAAAAAAAAAATATAT [CACACA_site1934]” was run?
A: 9.31 ± 0.59

Q: With “TAGTTGCACATGTATACACACAAAAAATATTTTATG [CACACA_site475]” as the sequence, how does the “gcPBM binding intensity (ln)” value read?
A: 9.04 ± 0.4

Q: Which “gcPBM binding intensity (ln)” value does the source give for “AATAAATATAGGTACACACACAAATATGTACATATC [CACACA_site6976]” here?
A: 9.46 ± 0.33

Q: With “AAGAAACCATAATATGCATGCACATATTAATAAATA [TGCATGCA_site693]” as the sequence, how does the “gcPBM binding intensity (ln)” value read?
A: 8.99 ± 0.47

Q: With “AAGTGGTTATAATCAACACACGTGGAATGTACTTTA [CACACA_site3700]” as the sequence, how does the “gcPBM binding intensity (ln)” value read?
A: 8.99 ± 0.45

Q: With “TTATAATTTTAATGTGCACACAATTAAAATATTATA [CACACA_site5172]” as the sequence, how does the “gcPBM binding intensity (ln)” value read?
A: 8.8 ± 0.35

Q: For “TATAAATAAATATACACACACACATATAAATATGTA [CACACA_site6504]”, which “gcPBM binding intensity (ln)” value is on record?
A: 9.63 ± 0.22

Q: With “TATTGACAAAAAAAAAAAAGGTAAAAAAGAAAGAAA [GTGCAC_negctrl_site418]” as the sequence, how does the “gcPBM binding intensity (ln)” value read?
A: 8.54 ± 0.62

Q: With “TTTTGTTTATGTGTGCATTATATTATATTTTTTATT [TGCATGCA_negctrl_site146]” as the sequence, how does the “gcPBM binding intensity (ln)” value read?
A: 9.07 ± 0.61

Q: For “TGTAAGAAATTGAGCGCACACATACATCTGTGGGAT [CACACA_site4945]”, which “gcPBM binding intensity (ln)” value is on record?
A: 9.35 ± 0.46

Q: For “CTACATACAAGAATTAAACACACACTAATTATAAAT [CACACA_site8986]”, which “gcPBM binding intensity (ln)” value is on record?
A: 9.3 ± 0.38

Q: For “CCTCAATATTCACATACACACAATATCATCGAAGTA [CACACA_site1676]”, which “gcPBM binding intensity (ln)” value is on record?
A: 9.07 ± 0.4

Q: How did the “gcPBM binding intensity (ln)” value turn out when “ATATGGGTAATGAATTGTACTCTTTCTTGTTGTTCT [XGTACX_site4487]” was run?
A: 9.06 ± 0.54

Q: How did the “gcPBM binding intensity (ln)” value turn out when “TGTAATAAATAGTACACACACACATATTTATATATC [CACACA_site6770]” was run?
A: 9.72 ± 0.23

Q: How did the “gcPBM binding intensity (ln)” value turn out when “GTATAATTTTCGTATTCACACAAGAATATACTACAT [CACACA_site4877]” was run?
A: 8.91 ± 0.45

Q: With “AATATATGTATGTACGCATGTATGTATCTATGTATT [TGCATGCA_site389]” as the sequence, how does the “gcPBM binding intensity (ln)” value read?
A: 9.04 ± 0.39

Q: For “TTATAATTATATACATGTACATATAATACATATATA [XGTACX_site8904]”, which “gcPBM binding intensity (ln)” value is on record?
A: 8.65 ± 0.33

Q: “ATAATTATATATTTATGTACGCATAAATATTTATAT [XGTACX_site5765]” was tested. Which “gcPBM binding intensity (ln)” value did it give?
A: 8.64 ± 0.39

Q: How did the “gcPBM binding intensity (ln)” value turn out when “TATTTATTGTGATACTACTATTATTTTATGATTAAA [CACACA_negctrl_site284]” was run?
A: 8.5 ± 0.42

Q: For “ACCCAATTTTAAAATGAACACACATGTTTTTCTTAC [CACACA_site8246]”, which “gcPBM binding intensity (ln)” value is on record?
A: 9.02 ± 0.39

Q: “TATACAACTTTATGAAGTACAAAAAGTTCTATATAT [XGTACX_site3866]” was tested. Which “gcPBM binding intensity (ln)” value did it give?
A: 8.53 ± 0.33

Q: Which “gcPBM binding intensity (ln)” value does the source give for TTGTTTTATTATTCGATGCACTACAGAAATATATTC here?
A: 8.72 ± 0.4

Q: Which “gcPBM binding intensity (ln)” value does the source give for “TATATATAACTTTATTGTACAAAATATTATGTATTC [XGTACX_site981]” here?
A: 8.76 ± 0.36

Q: How did the “gcPBM binding intensity (ln)” value turn out when “TTATATTATTTTTAATGTACTTTTTATGAATACAAA [XGTACX_site689]” was run?
A: 8.38 ± 0.51

Q: With “AACTATATCATTTATTTTATTTTTTAAATACATTTA [CACACA_negctrl_site183]” as the sequence, how does the “gcPBM binding intensity (ln)” value read?
A: 8.63 ± 0.52

Q: Which “gcPBM binding intensity (ln)” value does the source give for “AGAAAAGTTTAATACAGTACATAAACAAAGTATAGG [XGTACX_site2386]” here?
A: 8.89 ± 0.56

Q: “GTATATTTATAGCCTTTATTATATTTAATATTATTA [TGCATGCA_negctrl_site26]” was tested. Which “gcPBM binding intensity (ln)” value did it give?
A: 8.54 ± 0.46

Q: With “TATAATATTATATATAAACACACATACACATGTAAA [CACACA_site8631]” as the sequence, how does the “gcPBM binding intensity (ln)” value read?
A: 9.09 ± 0.23

Q: “GTTATATTTTTTTATACACACTGGAATATATAAATA [CACACA_site4282]” was tested. Which “gcPBM binding intensity (ln)” value did it give?
A: 8.64 ± 0.39

Q: Which “gcPBM binding intensity (ln)” value does the source give for “TTTATTATTTTTAGGAGTACACAAAATAAAACAAAT [XGTACX_site8841]” here?
A: 8.45 ± 0.43

Q: With “TATTTACCCTCATGTTGTACTTTTCATTCATTTTAT [XGTACX_site7794]” as the sequence, how does the “gcPBM binding intensity (ln)” value read?
A: 9.07 ± 0.45

Q: For “ACAAGTTTTTTTTTATCACACACAAAAAAAAAAATA [CACACA_site8377]”, which “gcPBM binding intensity (ln)” value is on record?
A: 8.77 ± 0.52

Q: For “GAAAATACGTTTAATCGTACATATATATAATATATA [XGTACX_site4243]”, which “gcPBM binding intensity (ln)” value is on record?
A: 8.68 ± 0.43

Q: With “AACATACATAGACACACACACACACGCACACGCACA [CACACA_site6373]” as the sequence, how does the “gcPBM binding intensity (ln)” value read?
A: 10.35 ± 0.071

Q: “ATTAATTATAATGTATGTACATAACTTTTTTATATT [XGTACX_site5784]” was tested. Which “gcPBM binding intensity (ln)” value did it give?
A: 8.75 ± 0.45

Q: For “AAAATCATTCCAAAGACATGCATTTTGCAAATAAAA [TGCATGCA_site461]”, which “gcPBM binding intensity (ln)” value is on record?
A: 8.6 ± 0.45

Q: For “TATATTATATACCATTGTACATATAATATAGGTTCT [XGTACX_site7047]”, which “gcPBM binding intensity (ln)” value is on record?
A: 8.74 ± 0.37

Q: Which “gcPBM binding intensity (ln)” value does the source give for “TCTATAAAGGAATATACACACATATATAAATATGTA [CACACA_site6332]” here?
A: 8.89 ± 0.35

Q: “TTTTGTTATAAATAATGTACATATTTATTTAAAATT [XGTACX_site6610]” was tested. Which “gcPBM binding intensity (ln)” value did it give?
A: 8.39 ± 0.39

Q: “AAAAACAGAAATGTAACACACAAAAATTCTATTTAT [CACACA_site4026]” was tested. Which “gcPBM binding intensity (ln)” value did it give?
A: 8.97 ± 0.52

Q: “TATAAAAATGTGCACACACACACATATTTATATTTA [CACACA_site6826]” was tested. Which “gcPBM binding intensity (ln)” value did it give?
A: 9.79 ± 0.15

Q: Which “gcPBM binding intensity (ln)” value does the source give for “AACCTTTATATGTAAAGTACAAAAAAGAGTAAAAAA [XGTACX_site5506]” here?
A: 8.65 ± 0.55

Q: How did the “gcPBM binding intensity (ln)” value turn out when “AAAAATAAGAAAAAGTGTACTTTATTATGTATATAT [XGTACX_site2305]” was run?
A: 8.61 ± 0.61

Q: For “ATTATTTTTTTTCTTATACACACCATGCATCAAACT [CACACA_site2128]”, which “gcPBM binding intensity (ln)” value is on record?
A: 9.02 ± 0.48

Q: For “ACTTGTAAGAAACACACACACACACCGATATATATA [CACACA_site4594]”, which “gcPBM binding intensity (ln)” value is on record?
A: 10.1 ± 0.31

Q: “AAAAAAAAAAAAAAAACACACATTTAATGAACTTAT [CACACA_site1276]” was tested. Which “gcPBM binding intensity (ln)” value did it give?
A: 8.8 ± 0.49

Q: Which “gcPBM binding intensity (ln)” value does the source give for “ATATATAATCATATGTGTACATATATATTAATTTAA [XGTACX_site2839]” here?
A: 8.79 ± 0.34

Q: How did the “gcPBM binding intensity (ln)” value turn out when “AATTCAAAATAAAAATGTACATATATCAGAATATGG [XGTACX_site42]” was run?
A: 8.73 ± 0.43

Q: Which “gcPBM binding intensity (ln)” value does the source give for “TTTTTTTTTTATGTTATTAAAAAAAAAAAAAATTAA [CACACA_negctrl_site222]” here?
A: 7.79 ± 0.34

Q: Which “gcPBM binding intensity (ln)” value does the source give for “AAGATACACTTAATCGCACACGAAATTATATATTTA [CACACA_site3063]” here?
A: 8.96 ± 0.42

Q: With “TATAACATTGTATGAATGCACTTTTATCTATTTTAA [GTGCAC_site9903]” as the sequence, how does the “gcPBM binding intensity (ln)” value read?
A: 8.68 ± 0.47

Q: Which “gcPBM binding intensity (ln)” value does the source give for “ATGAGAAAATATATTATTTTATATGAACAAGTTTAT [XGTACX_negctrl_site372]” here?
A: 8.51 ± 0.4
